According to PubChem BioAssay AID1645887 (National Center for Advancing Translational Sciences (NCATS), 2021):
Where “and” joins values, the source holds several entries; their conditions need not be identical. Equal entries are not always repeated. Hit rate of the full screen: of about 16,000 compounds, about 40 (0.2%) were called active. Another 1% or so got no clear call; they are omitted. The call rests on the fitted dose curve; in most records, active means well fitted activation curve with a large enough effect; inconclusive means small, poorly fitted or top-dose-only effect, or another doubt; inactive means no such curve, though single readings can be large or run the other way. This is one part of the list.

What follows are compounds tested against Rap guanine nucleotide exchange factor 4 (Homo sapiens) (UniProt Q8WZA2) (assay: Validation qHTS for agonist of cAMP-regulated guanine nucleotide exchange factor 4 (EPAC2)). Settings: EPAC2 Rap1B BODIPY-GDP exchange, fluorescence; activation: hits give high values.
Sequence of UniProt Q8WZA2 (Q8WZA2 whole entry, looked up): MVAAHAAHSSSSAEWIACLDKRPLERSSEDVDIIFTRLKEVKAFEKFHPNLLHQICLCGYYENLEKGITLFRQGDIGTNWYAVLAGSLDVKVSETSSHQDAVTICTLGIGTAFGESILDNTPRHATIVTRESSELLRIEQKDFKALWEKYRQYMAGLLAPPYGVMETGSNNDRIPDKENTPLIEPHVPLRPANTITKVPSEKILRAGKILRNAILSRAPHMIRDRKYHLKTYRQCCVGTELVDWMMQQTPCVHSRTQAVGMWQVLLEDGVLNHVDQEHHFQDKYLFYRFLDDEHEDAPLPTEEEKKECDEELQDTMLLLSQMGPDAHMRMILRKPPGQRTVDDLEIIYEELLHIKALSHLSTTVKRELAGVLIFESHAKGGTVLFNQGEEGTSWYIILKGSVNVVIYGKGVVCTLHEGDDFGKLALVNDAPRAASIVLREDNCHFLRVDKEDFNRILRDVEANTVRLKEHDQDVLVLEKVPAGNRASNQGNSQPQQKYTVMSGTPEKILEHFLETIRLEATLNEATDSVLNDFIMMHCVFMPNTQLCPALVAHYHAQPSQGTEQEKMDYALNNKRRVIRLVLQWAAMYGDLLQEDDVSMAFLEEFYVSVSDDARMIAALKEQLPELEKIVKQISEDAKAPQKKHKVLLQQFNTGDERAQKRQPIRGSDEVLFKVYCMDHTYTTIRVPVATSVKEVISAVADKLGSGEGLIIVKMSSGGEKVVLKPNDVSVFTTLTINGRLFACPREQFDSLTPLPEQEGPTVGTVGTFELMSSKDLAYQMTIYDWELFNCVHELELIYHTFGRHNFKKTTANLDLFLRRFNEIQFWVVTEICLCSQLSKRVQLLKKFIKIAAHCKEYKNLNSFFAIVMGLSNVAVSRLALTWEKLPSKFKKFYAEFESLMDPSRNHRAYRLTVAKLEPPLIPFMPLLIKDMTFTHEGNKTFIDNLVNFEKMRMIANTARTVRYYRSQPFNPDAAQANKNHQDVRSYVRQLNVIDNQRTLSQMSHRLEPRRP
Method in brief: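 Fluorescent exchange assay: 100 nM EPAC2 with 250 nM RAP1B-BODIPY-GDP and 50 uM GDP; compound added, 5 min at room temperature, then read (ex 480/em 540 nm) every 5 min for 30 min. Normalized to 6.5 mM cAMP agonist control.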
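Further: exchange makes BODIPY-GDP fluorescence drop when released from Rap1B; series mostly up to about 150 µM.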
On the % scale 0 is the no-effect control and ±100 the full control effect.

activation, inactive:
CN1C2CC(OC(=O)[C@H](CO)c3ccccc3)CC1C1OC12 (stereo not given in full) -21.6%
N[C@H]1C(O)O[C@H](CO)[C@@H](O)[C@@H]1O (stereo not given in full) 9.11%
Cc1cc(C(=O)NCC2CCC3(CCN(Cc4ccccc4C)CC3)O2)n(C)n1 (stereo not given) -9.56%
OCC1OC(n2cnc3c(Cl)ncnc32)C(O)C1O (stereo not given) -1.75%
CC(C)C(N)C(=O)O (stereo not given) 8.46%
COc1cc(NS(C)(=O)=O)ccc1Cc1c2ccccc2nc2ccccc12 -17.5%
O=C1Nc2ccccc2C(=O)N2CCC[C@@H]12 -11.5%
COc1ccc(-c2cc(=O)c3c(O)cc(O)cc3o2)cc1 -13.7% and -6.18%
Cc1cnc(C)c(-c2ccc3c(c2)CC(CNC(=O)Cc2c(C)[nH]c4ccccc24)O3)n1 (stereo not given) -7.2%
CC(=O)N[C@@H](CC(=O)N[C@@H](CCC(=O)O)C(=O)O)C(=O)O 9.5%
O=S(=O)(c1ccccc1)N1CCC2(CCCN(C(c3ccccc3)c3ccccc3)C2)CC1 -18.5%
c1ccc(C(NCCNC(c2ccccc2)c2ccccc2)c2ccccc2)cc1 -62.9%
O=c1c(O)cccc2cc(O)c(O)c(O)c12 1.02%
CCCCCCCCCCCCCCCC(=O)OCCC1CCN(CCCN2c3ccccc3Sc3ccc(S(=O)(=O)N(C)C)cc32)CC1 -14.3%
N#CCCn1c(=O)c(-c2ccccc2)nc2cnc(N3CCNCC3)nc21 -6%
Cc1ccc(S(=O)(=O)NC(=O)NN2CC3CCCC3C2)cc1 (stereo not given) -5.8% and -1.93% and -16%
CCC(C)C(C(=O)OCC[N+](C)(CC)CC)c1ccccc1 (stereo not given) 3.27%
CC(C)CN1CCCC2(CCN(C(=O)c3cccc(F)c3)CC2)C1 -15.5%
COc1ccc(-n2c(=O)c(CCc3ccccc3)nc3cnc(N4CCOCC4)nc32)cc1 -0.528%
CCNc1ncc2nc(-c3ccc(Cl)cc3)c(=O)n(CCC#N)c2n1 -1.79%
COC(=O)c1cc(CNC(=O)c2ccccc2)cc(NC(=O)c2ccccc2OC)c1 -4.47%
CN1CCN(c2ncc3nc(CCc4ccccc4)c(=O)n(C)c3n2)CC1 -1.46%
O=C(O)c1cc2ccccc2[nH]1 -20.8%
CN(Cc1ccco1)c1cc(-c2cccc(C#N)c2)ncn1 -0.907%
O=c1c(-c2ccccc2)nc2cnc(N3CCOCC3)nc2n1C1CC1 7.86%
